Data reported in patent US20250163048A1 (Tango Therapeutics, Inc., priority 2022, published 2025).
Read-outs that look alike come from different tables or passages of the source.

Key:
[1] = system: HAP1 MTAP-deleted cell line; assay: SDMA in-cell western assay, HAP1 MTAP-deleted; details: for IC50 / IC90: Homo sapiens; for Hap1 MTAP intact/deleted ratio: IC50 ratio between HAP1 MTAP-intact and HAP1 MTAP-deleted cell line
[2] = system: HAP1 MTAP-intact cell line; assay: SDMA in-cell western assay, HAP1 MTAP-intact; details: Homo sapiens
MTAP-deleted cell line = assay: viability assay for the MTAP-deleted cell line; type: cell-based; details: Homo sapiens, HAP1, viability assay
[3] = HAP1, read-out: Hap1 MTAP deleted IC50, SDMA in-cell western, HAP1 MTAP-deleted cell line
[4] = HAP1, read-out: Hap1 MTAP deleted IC90, SDMA in-cell western, HAP1 MTAP-deleted cell line
[5] = HAP1, read-out: Hap1 MTAP intact IC50, SDMA in-cell western, HAP1 MTAP-intact cell line
[6] = HAP1, read-out: Hap1 MTAP deleted IC50, SDMA in-cell western assay, HAP1 MTAP-deleted cell line
[7] = HAP1, read-out: Hap1 MTAP deleted IC90, SDMA in-cell western assay, HAP1 MTAP-deleted cell line
[8] = HAP1, read-out: Hap1 MTAP intact IC50, SDMA in-cell western assay, HAP1 MTAP-intact cell line

| Compound | IC50 [1, 3] | IC90 [1, 4] | Hap1 MTAP intact/deleted ratio ([1]; SDMA in-cell western) | IC50 [2, 5] | IC50 (MTAP-deleted cell line) | IC50 [1, 6] | IC90 [1, 7] | Hap1 MTAP intact/deleted ratio ([1]; SDMA in-cell western assay) | IC50 [2, 8] | IC50 ([2]; HAP1, read-out: Hap1 MTAP intact IC50) |
| --- | --- | --- | --- | --- | --- | --- | --- | --- | --- | --- |
| CO[C@H]1C[C@@H](c2ccc(F)cc2)N(C(=O)C(=O)Nc2cnc(N)c3cn[nH]c23)C[C@@H]1C (single isomer, unassigned) [Compound 160] | > 50 nM | > 125 nM | C (“C” indicates an IC50 ratio of less than 15 fold) | > 50 nM | 100 to 1000 nM | – | – | – | – | – |
| C[C@H]1CC[C@H](c2ccc3cn(C4CCN(C)CC4)nc3c2)N(C(=O)C(=O)Nc2ccn3ccnc3c2)C1 [Compound 88, N-imidazo[1,2-a]pyridin-7-yl-2-oxo-2-[(2R,5S)-5-methyl-2-[2-(1-methyl-4-piperidyl)indazol-6-yl]-1-piperidyl]acetamide] | < 5 nM | < 75 nM | B (“B” indicates an IC50 ratio greater than or equal to 15 fold but lower than 30 fold) | 5 to 50 nM | < 100 nM | – | – | – | – | – |
| C[C@H]1CC[C@H](c2ccc3sc([C@@H]4CN5CC[C@@H]4C5)nc3c2)N(C(=O)C(=O)Nc2cncc3cn[nH]c23)C1 (relative stereo) [Compound 134, 2-((2R,5S)-2-(2-(1-azabicyclo[2.2.1]heptan-3-yl)benzo[d]thiazol-5-yl)-5-methylpiperidin-1-yl)-2-oxo-N-(1H-pyrazolo[4,3-c]pyridin-7-yl)acetamide] | < 5 nM | < 75 nM | C (“C” indicates an IC50 ratio of less than 15 fold) | 5 to 50 nM | < 100 nM | – | – | – | – | – |
| COc1cc([C@H]2CC[C@H](C)CN2C(=O)C(=O)Nc2cnc(N)c3cn[nH]c23)cnc1C (racemic) [Compound 225, N-(4-Amino-1H-pyrazolo[4,3-c]pyridin-7-yl)-2-oxo-2-[rac-(2R,5S)-2-(5-methoxy-6-methyl-3-pyridyl)-5-methyl-1-piperidyl]acetamide] | – | – | – | – | < 100 nM | < 5 nM | < 75 nM | B (“B” indicates an IC50 ratio greater than or equal to 15 fold but lower than 30 fold) | > 50 nM | – |
| C[C@H]1CC[C@H](c2cccc(CN(C)C)c2)N(C(=O)C(=O)Nc2cnc(N)c3cn[nH]c23)C1 [Compound 158, N-(4-amino-1H-pyrazolo[4,3-c]pyridin-7-yl)-2-((2R,5S)-2-(3-((dimethylamino)methyl)phenyl)-5-methylpiperidin-1-yl)-2-oxoacetamide] | < 5 nM | < 75 nM | B (“B” indicates an IC50 ratio greater than or equal to 15 fold but lower than 30 fold) | > 50 nM | < 100 nM | – | – | – | – | – |
| C[C@H]1CC[C@H](c2ccc3sc(C4CCNCC4)nc3c2)N(C(=O)C(=O)Nc2cncc3cn[nH]c23)C1 [Compound 6, 2-oxo-N-(1H-pyrazolo[4,3-c]pyridin-7-yl)-2-[(5S)-5-methyl-2-[2-(4-piperidyl)-1,3-benzothiazol-5-yl]-1-piperidyl]acetamide] | 5 to 50 nM | < 75 nM | C (“C” indicates an IC50 ratio of less than 15 fold) | 5 to 50 nM | < 100 nM | – | – | – | – | – |
| C[C@H]1CC[C@H](c2ccc(NC(=O)CCN(C)C)cc2)N(C(=O)C(=O)Nc2ccn3ccnc3c2)C1 [Compound 52, 3-(Dimethylamino)-N-[4-[(2R,5S)-1-[2-(imidazo[1,2-a]pyridin-7-ylamino)-2-oxo-acetyl]-5-methyl-2-piperidyl]phenyl]propanamide] | 5 to 50 nM | > 125 nM | B (“B” indicates an IC50 ratio greater than or equal to 15 fold but lower than 30 fold) | > 50 nM | 100 to 1000 nM | – | – | – | – | – |
| C[C@H]1CC[C@H](c2ccc3sc([C@H]4CCN(C)C[C@H]4C)nc3c2)N(C(=O)C(=O)Nc2cncc3cn[nH]c23)C1 (relative stereo) [Compound 95, 2-oxo-N-(1H-pyrazolo[4,3-c]pyridin-7-yl)-2-[(2R,5S)-5-methyl-2-[2-[rel-(3S,4S)-1,3-dimethyl-4-piperidyl]-1,3-benzothiazol-5-yl]-1-piperidyl]acetamide] | < 5 nM | < 75 nM | B (“B” indicates an IC50 ratio greater than or equal to 15 fold but lower than 30 fold) | 5 to 50 nM | < 100 nM | – | – | – | – | – |
| C[C@H]1CC[C@H](c2ccc3nn(C4CCN(C)CC4)cc3c2)N(C(=O)C(=O)Nc2cncc3cn[nH]c23)C1 [Compound 84, 2-oxo-N-(1H-pyrazolo[4,3-c]pyridin-7-yl)-2-[(2R,5S)-5-methyl-2-[2-(1-methyl-4-piperidyl)indazol-5-yl]-1-piperidyl]acetamide] | < 5 nM | < 75 nM | B (“B” indicates an IC50 ratio greater than or equal to 15 fold but lower than 30 fold) | > 50 nM | < 100 nM | – | – | – | – | – |
| C[C@H]1CC[C@H](c2ccc3sc([C@@H]4CCCN(C)C4)nc3c2)N(C(=O)C(=O)Nc2cncc3c(N)nccc23)C1 (relative stereo) [Compound 8, N-(8-amino-2,7-naphthyridin-4-yl)-2-oxo-2-[(2R,5S)-5-methyl-2-[2-[rel-(3R)-1-methyl-3-piperidyl]-1,3-benzothiazol-5-yl]-1-piperidyl]acetamide] | < 5 nM | < 75 nM | A (“A” indicates an IC50 ratio greater than or equal to 30 fold) | > 50 nM | < 100 nM | – | – | – | – | – |
| C[C@H]1CC[C@H](c2ccc3sc(C4(CN(C)C)COC4)nc3c2)N(C(=O)C(=O)Nc2ccn3ccnc3c2)C1 [Compound 96, 2-((2R,5S)-2-(2-(3-((dimethylamino)methyl)oxetan-3-yl)benzo[d]thiazol-5-yl)-5-methylpiperidin-1-yl)-N-(imidazo[1,2-a]pyridin-7-yl)-2-oxoacetamide] | 5 to 50 nM | – | A (“A” indicates an IC50 ratio greater than or equal to 30 fold) | > 50 nM | 100 to 1000 nM | – | – | – | – | – |
| CC[C@H]1CC[C@H](C)CN1C(=O)C(=O)Nc1cnc(N)c2cnn(C)c12 [Compound 281, N-(4-Amino-1-methyl-pyrazolo[4,3-c]pyridin-7-yl)-2-oxo-2-[(2S,5S)-2-ethyl-5-methyl-1-piperidyl]acetamide] | – | – | – | – | > 1000 nM | > 50 nM | > 125 nM | C (“C” indicates an IC50 ratio of less than 15 fold) | > 50 nM | – |
| C[C@H]1CC[C@H](c2ccc3cn([C@H]4CCN(C)C4)nc3c2)N(C(=O)C(=O)Nc2cncc3cn[nH]c23)C1 [Compound 117, 2-((2R,5S)-5-methyl-2-(2-((S)-1-methylpyrrolidin-3-yl)-2H-indazol-6-yl)piperidin-1-yl)-2-oxo-N-(1H-pyrazolo[4,3-c]pyridin-7-yl)acetamide] | < 5 nM | < 75 nM | A (“A” indicates an IC50 ratio greater than or equal to 30 fold) | 5 to 50 nM | < 100 nM | – | – | – | – | – |
| CCN(CC)c1cccc(C2CCCCN2C(=O)C(=O)Nc2cnc(N)c3cn[nH]c23)c1 (single isomer, unassigned) [Compound 236] | – | – | – | – | < 100 nM | < 5 nM | < 75 nM | A (“A” indicates an IC50 ratio greater than or equal to 30 fold) | > 50 nM | – |
| C[C@H]1CC[C@H](c2ccc3sc(C4CCN(C)CC4)nc3c2)N(C(=O)C(=O)Nc2cnc(N)c3c2COC3)C1 (racemic) [Compound 193, N-(4-amino-1,3-dihydrofuro[3,4-c]pyridin-7-yl)-2-oxo-2-[rac-(2R,5S)-5-methyl-2-[2-(1-methyl-4-piperidyl)-1,3-benzothiazol-5-yl]-1-piperidyl]acetamide] | < 5 nM | < 75 nM | C (“C” indicates an IC50 ratio of less than 15 fold) | – | < 100 nM | – | – | – | – | < 5 nM |
| C[C@H]1CC[C@H](c2cncc(Cl)c2)N(C(=O)C(=O)Nc2cnc(N)c3cn[nH]c23)C1 (racemic) [Compound 203, N-(4-Amino-1H-pyrazolo[4,3-c]pyridin-7-yl)-2-oxo-2-[rac-(2R,5S)-2-(5-chloro-3-pyridyl)-5-methyl-1-piperidyl]acetamide] | – | – | – | – | < 100 nM | < 5 nM | < 75 nM | A (“A” indicates an IC50 ratio greater than or equal to 30 fold) | 5 to 50 nM | – |
| C[C@H]1CC[C@H](c2cncc(C(F)(F)F)c2)N(C(=O)C(=O)Nc2cnc(N)c3cn[nH]c23)C1 (racemic) [Compound 260, N-(4-Amino-1H-pyrazolo[4,3-c]pyridin-7-yl)-2-oxo-2-[rac-(2R,5S)-5-methyl-2-[5-(trifluoromethyl)-3-pyridyl]-1-piperidyl]acetamide] | – | – | – | – | < 100 nM | < 5 nM | < 75 nM | B (“B” indicates an IC50 ratio greater than or equal to 15 fold but lower than 30 fold) | 5 to 50 nM | – |
| C[C@H]1CC[C@H](c2ccn(C)n2)N(C(=O)C(=O)Nc2cnc(N)c3cn[nH]c23)C1 [Compound 201, N-(4-Amino-1H-pyrazolo[4,3-c]pyridin-7-yl)-2-oxo-2-[(2R,5S)-5-methyl-2-(1-methylpyrazol-3-yl)-1-piperidyl]acetamide] | – | – | – | – | < 100 nM | < 5 nM | < 75 nM | C (“C” indicates an IC50 ratio of less than 15 fold) | 5 to 50 nM | – |
